{"source": "paper PMC4336329", "about": "(PLoS ONE, 2015)", "note": "About 14,000 (4.5%) of roughly 310,000 compounds showed an effect of 50% or more. Effects have a minus sign here. Some of the results follow.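 Further: peak tail current of the secondary pulse compared with the same well before compound.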"}
{"target": "human ether-à-go-go-related gene (hERG) potassium channel (human, UniProt Q12809)", "sequence (Q12809 whole entry, looked up)": "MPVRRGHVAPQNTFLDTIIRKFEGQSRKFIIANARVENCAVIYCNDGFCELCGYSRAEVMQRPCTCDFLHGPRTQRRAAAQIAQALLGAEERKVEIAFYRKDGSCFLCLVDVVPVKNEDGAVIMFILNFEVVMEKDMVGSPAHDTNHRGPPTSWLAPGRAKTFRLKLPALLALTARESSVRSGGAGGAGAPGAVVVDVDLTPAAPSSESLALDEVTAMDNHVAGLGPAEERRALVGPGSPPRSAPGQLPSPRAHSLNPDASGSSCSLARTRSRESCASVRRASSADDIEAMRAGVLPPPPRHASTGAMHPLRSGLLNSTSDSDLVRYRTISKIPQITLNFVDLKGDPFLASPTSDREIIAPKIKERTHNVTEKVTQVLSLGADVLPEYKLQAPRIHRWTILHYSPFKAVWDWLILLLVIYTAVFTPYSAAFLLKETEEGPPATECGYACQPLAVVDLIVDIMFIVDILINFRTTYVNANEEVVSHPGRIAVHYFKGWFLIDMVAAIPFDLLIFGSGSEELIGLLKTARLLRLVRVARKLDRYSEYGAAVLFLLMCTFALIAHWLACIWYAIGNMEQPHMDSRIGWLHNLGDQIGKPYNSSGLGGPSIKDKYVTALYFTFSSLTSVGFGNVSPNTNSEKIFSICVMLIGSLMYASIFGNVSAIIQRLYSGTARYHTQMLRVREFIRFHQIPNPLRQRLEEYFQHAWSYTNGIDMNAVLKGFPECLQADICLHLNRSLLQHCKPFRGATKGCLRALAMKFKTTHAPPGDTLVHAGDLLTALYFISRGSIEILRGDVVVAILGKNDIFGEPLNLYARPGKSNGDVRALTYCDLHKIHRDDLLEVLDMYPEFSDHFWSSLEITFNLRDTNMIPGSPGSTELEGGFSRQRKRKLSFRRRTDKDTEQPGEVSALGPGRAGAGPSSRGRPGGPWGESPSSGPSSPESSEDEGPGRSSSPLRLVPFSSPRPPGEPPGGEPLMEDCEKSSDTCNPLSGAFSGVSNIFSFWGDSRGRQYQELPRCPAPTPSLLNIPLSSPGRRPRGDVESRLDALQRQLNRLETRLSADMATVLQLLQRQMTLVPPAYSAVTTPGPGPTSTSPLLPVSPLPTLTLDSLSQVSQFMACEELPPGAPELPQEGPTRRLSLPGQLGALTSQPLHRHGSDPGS", "assay": "primary screen, population patch clamp on CHO cells stably expressing hERG", "units": {"hERG current change (%, negative = inhibition) at 10uM": "%"}}
{"smiles": "CCCCc1nnc(NC(=O)CSc2nc(C)cc(=O)[nH]2)s1", "hERG current change (%, negative = inhibition) at 10uM": -8.93}
{"smiles": "CCOC(=O)c1c(C)[nH]c(C(=O)O)c1C", "hERG current change (%, negative = inhibition) at 10uM": 15.1}
{"smiles": "Cc1ccc(-n2nc3c(c2NC(=O)c2ccco2)CS(=O)C3)c(C)c1", "note": "(stereo not shown)", "hERG current change (%, negative = inhibition) at 10uM": -18.1}
{"smiles": "CC1=CC(C)(C)N=C(NC#N)N1", "hERG current change (%, negative = inhibition) at 10uM": 3.6}
{"smiles": "NS(=O)(=O)c1ccc(CCNC(=O)c2cc(-c3ccco3)nc3ccccc23)cc1", "hERG current change (%, negative = inhibition) at 10uM": -58.3}
{"smiles": "CN(Cc1c(F)cccc1Cl)C(=O)CNC(=O)c1cccs1", "hERG current change (%, negative = inhibition) at 10uM": -5.95}
{"smiles": "CCCCOc1ccc(C2(C)NC(=O)NC2=O)cc1", "note": "(stereo not shown)", "hERG current change (%, negative = inhibition) at 10uM": -3.1}
{"smiles": "Cc1cc(C(C)(C)C)cc(C)c1CCNC(=O)c1ccc[n+]([O-])c1", "hERG current change (%, negative = inhibition) at 10uM": -31.1}
{"smiles": "S=c1[nH]nc(Nc2ccccc2Cl)s1", "hERG current change (%, negative = inhibition) at 10uM": 11.5}
{"smiles": "CC(C)c1nc(SCC(=O)Nc2c[nH]c(=O)[nH]c2=O)c2cnn(-c3ccccc3)c2n1", "hERG current change (%, negative = inhibition) at 10uM": 20.9}
{"smiles": "COc1ccc(C(=O)Nc2cccc(-c3ccc4nncn4n3)c2)cc1OC", "hERG current change (%, negative = inhibition) at 10uM": 8.84}
{"smiles": "COc1ccccc1C(=O)COC(=O)C(CCSC)NC(=O)COc1ccccc1", "note": "(stereo not shown)", "hERG current change (%, negative = inhibition) at 10uM": -8.95}
{"smiles": "CCOC(=O)c1ccc(CSc2n[nH]c(C)n2)o1", "hERG current change (%, negative = inhibition) at 10uM": 3.96}
{"smiles": "CCOCCCNC(=O)c1cc(Sc2ccc(F)cc2)nc2ccccc12", "hERG current change (%, negative = inhibition) at 10uM": -12.4}
{"smiles": "O=C1N[C@@H](Cc2ccccc2)C(=O)N2[C@H]1C[C@]1(Br)c3ccccc3N(S(=O)(=O)c3ccccc3)[C@H]21", "hERG current change (%, negative = inhibition) at 10uM": -8.32}
{"smiles": "COc1ccc(C(=O)C2CCCN(C(=O)CCc3scnc3C)C2)c(C)c1", "note": "(stereo not shown)", "hERG current change (%, negative = inhibition) at 10uM": -21.5}
{"smiles": "Cc1cccc(C)c1NC(=O)CNC(=O)CCCc1c[nH]c2ccccc12", "hERG current change (%, negative = inhibition) at 10uM": -34.5}
{"smiles": "Cc1ccc(-c2ccc(CCC(=O)O)n2NC(=O)c2cccs2)cc1", "hERG current change (%, negative = inhibition) at 10uM": -6.83}
{"smiles": "CN(C(=O)c1sc2nc(N3CCCC3)c3c(c2c1N)CC(C)(C)OC3)c1ccccc1", "hERG current change (%, negative = inhibition) at 10uM": -6.85}
{"smiles": "CCCCC(C)C(OC(=O)CC(CC(=O)O)C(=O)O)C(CC(C)CC(O)CCCCC(O)CC(O)C(C)N)OC(=O)CC(CC(=O)O)C(=O)O", "note": "(stereo not shown)", "hERG current change (%, negative = inhibition) at 10uM": 9.03}
{"smiles": "Cc1ccc(Cn2nnc3c(=O)[nH]c(C4CCN(S(=O)(=O)c5cc(C)ccc5C)CC4)nc32)cc1", "hERG current change (%, negative = inhibition) at 10uM": 13}
{"smiles": "CCCc1cc(C(=O)OC)c(NC(=O)CCCC(=O)O)s1", "hERG current change (%, negative = inhibition) at 10uM": 26.5}
{"smiles": "COCCn1c(SCC(=O)Nc2cc(C)on2)nc2c(c1=O)SCC2", "hERG current change (%, negative = inhibition) at 10uM": -5.05}
{"smiles": "COc1ccc(OC)c(S(=O)(=O)N2CCCC(C(=O)NCc3cccnc3)C2)c1", "note": "(stereo not shown)", "hERG current change (%, negative = inhibition) at 10uM": -5.43}
{"smiles": "CN(C)C(=O)c1nc(C#N)c(N(C)C)o1", "hERG current change (%, negative = inhibition) at 10uM": 14.4}
{"smiles": "Cc1ccccc1S(=O)(=O)Cc1ccc(C(=O)NCCN(CC(C)C)CC(C)C)o1", "hERG current change (%, negative = inhibition) at 10uM": -43.6}
{"smiles": "COc1cc(NC(=O)c2ccc(C)cc2C)ccc1NC(=O)c1cccs1", "hERG current change (%, negative = inhibition) at 10uM": 8.21}
{"smiles": "CCOc1ccccc1OCC(=O)Nc1ccc(Cl)cc1Cl", "hERG current change (%, negative = inhibition) at 10uM": 9.65}
{"smiles": "O=C(CCN1C(=O)c2ccccc2C1=O)N1CCC(c2ccccc2)C1", "note": "(stereo not shown)", "hERG current change (%, negative = inhibition) at 10uM": -43}
{"smiles": "Cc1cc(C)cc(NC(=S)N2CCC(NC(=O)C3CC3)CC2)c1", "hERG current change (%, negative = inhibition) at 10uM": 0.346}
{"smiles": "COc1cc(=O)[nH]c(SC(C)C(=O)Nc2ccc3ccccc3c2)n1", "note": "(stereo not shown)", "hERG current change (%, negative = inhibition) at 10uM": 18.7}
{"smiles": "Cc1ccc(C(=O)Nc2ccc3c(c2)CCC3)cc1", "hERG current change (%, negative = inhibition) at 10uM": 14.7}
{"smiles": "CCc1cc(=O)oc2cc(C)cc(OCC(=O)NCc3cccnc3)c12", "hERG current change (%, negative = inhibition) at 10uM": -31.5}
{"smiles": "COc1cccc(/C=C(/C(=O)OCC(=O)NC2CCCC(C)C2C)c2ccccc2)c1", "note": "(stereo not shown)", "hERG current change (%, negative = inhibition) at 10uM": 25.9}
{"smiles": "CCc1nc(NCC2CCCO2)c2oc3ccccc3c2n1.Cl", "note": "(stereo not shown)", "hERG current change (%, negative = inhibition) at 10uM": -19}
{"smiles": "COc1cccc(NC(=O)CN(C)C(=O)COc2ccc3ccccc3c2)c1", "hERG current change (%, negative = inhibition) at 10uM": 6.94}
{"smiles": "COc1ccc(S(=O)(=O)N2CCCCCC2)cc1C(=O)NC1(C)CCS(=O)(=O)C1", "note": "(stereo not shown)", "hERG current change (%, negative = inhibition) at 10uM": -42.4}
{"smiles": "Cc1ccc(S(=O)(=O)N2CCC(C(=O)N3Cc4ccccc4C3)CC2)cc1", "hERG current change (%, negative = inhibition) at 10uM": -21.6}
{"smiles": "CC(NC(=O)Cc1cccc2ccccc12)C(=O)N1CCC(=O)CC1", "note": "(stereo not shown)", "hERG current change (%, negative = inhibition) at 10uM": 22}
{"smiles": "COc1ccc(NC(=O)Cc2cccc(F)c2)cc1S(=O)(=O)Nc1ccccc1Cl", "hERG current change (%, negative = inhibition) at 10uM": -3.55}
{"smiles": "CCOC(=O)c1cc2c(ccn2-c2ccc(F)cc2)n1CC(=O)NC(C)(C)C", "hERG current change (%, negative = inhibition) at 10uM": 15.2}
{"smiles": "CSC1=NC2(CCCCC2)C2=C(CCCC2)N1", "hERG current change (%, negative = inhibition) at 10uM": -19.4}
{"smiles": "CCOC(=O)COc1ccccc1/C=N/O", "hERG current change (%, negative = inhibition) at 10uM": 0.661}
{"smiles": "Cc1onc(-c2ccccc2)c1C(=O)N/N=C/c1ccc(O)c([N+](=O)[O-])c1", "hERG current change (%, negative = inhibition) at 10uM": 9.34}
{"smiles": "COc1cccc(/C=C/C(=O)Nc2ccc3nc4n(c(=O)c3c2)CCCC4)c1OC", "hERG current change (%, negative = inhibition) at 10uM": 12.8}
{"smiles": "CC(C)(CNC(=O)c1cccc(S(=O)(=O)NCc2ccccc2)c1)N1CCOCC1", "hERG current change (%, negative = inhibition) at 10uM": -21.6}
{"smiles": "COc1ccc(-c2nnc(SCc3csc(N)n3)n2C)cc1", "hERG current change (%, negative = inhibition) at 10uM": -11.9}
{"smiles": "C=CCc1c(C)c(C#N)c2nc3ccccc3n2c1NCCN(C)C", "hERG current change (%, negative = inhibition) at 10uM": -15.8}
{"smiles": "CC(=O)O[C@H]1CC[C@@]2(C)[C@H](C1)C(=O)C[C@H]1[C@@H]3CC[C@@H]4[C@@H](CN5C[C@@H](C)CC[C@H]5[C@@]4(C)O)[C@@H]3C[C@@H]12", "hERG current change (%, negative = inhibition) at 10uM": -3.95}
{"smiles": "Clc1cccc(CSc2ccc(-c3cccnc3)nn2)c1", "hERG current change (%, negative = inhibition) at 10uM": -67.3}
{"smiles": "O=C(C1COc2ccccc2O1)N1CCc2ccccc2C1", "note": "(stereo not shown)", "hERG current change (%, negative = inhibition) at 10uM": -3.37}
{"smiles": "Cc1nc2ccccc2n2c(-c3ccccc3)c3c(=O)n(C)c(=O)n(C)c3c12", "hERG current change (%, negative = inhibition) at 10uM": -7.8}
{"smiles": "COc1ccc(S(=O)(=O)N2CCC(O)(c3ccc4c(c3)OCO4)CC2)cc1", "hERG current change (%, negative = inhibition) at 10uM": -11.2}
{"smiles": "CCOc1ccc2c(c1)C(C)=CC(C)(C)N2C(=O)Nc1ccccc1", "hERG current change (%, negative = inhibition) at 10uM": 5.9}
{"smiles": "COc1ccc(OCC(=O)N2CCN(Cc3ccc4c(c3)OCO4)CC2)cc1", "hERG current change (%, negative = inhibition) at 10uM": -12.2}
